Results taken from PubChem BioAssay (Tox21).
Several values for one entry are separate records, joined by “and”; a condition that tells them apart may be missing. Equal entries are not always repeated. This list was built around the results that the source calls inconclusive (neither active nor inactive); the mix of calls is not that of the screen. Where the call is inconclusive, the potency comes from a doubtful curve fit. Activity calls are given as the source filed them. Calls come from the whole dose curve; as a rule, active = well fitted curve in the direction sought with a large enough effect in the repeat runs; inconclusive = weak or mixed curves; inactive = no such curve, though single readings can be large; an effect the other way counts as inactive or inconclusive.

Assay: A CellTox Green Cytotoxicity Assay to monitor cytotoxicity in HepG2 cells - 40 hour (AID 1224879); note: nearly all actives have a fitted effect of over 40% in size
Conditions: CellTox Green fluorescence; series mostly up to 76.8 µM
Method in brief: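 Cytotoxicity was tracked as dead-cell DNA fluorescence in HepG2 cells treated with test compounds at 37 C; each time-point value comes from one kinetic series spanning 0, 8, 16, 24, 32 and 40 h.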
Potency is the fitted concentration of half-maximal effect; tags give direction and shape of the fitted curve.

Structure (SMILES) | Potency
CN(C)c1cccc(O)c1 | inconclusive: 54.9 µM [activator, partial curve, poor fit]
O=C1c2ccccc2C(=O)N1SC1CCCCC1 | inconclusive: 54.9 µM [activator, single point]
c1ccc(Sc2ccccc2)cc1 | inconclusive: 54.9 µM [activator, partial curve, poor fit]
CCCCCCCCCCCCCCCCCCNC(=O)OC1CCN(C(=O)OC[C@H](COC(=O)N(Cc2cccc[n+]2CC)C(=O)c2ccccc2OC)OC)CC1 | inconclusive: 26.8 µM [activator, single point]
Cc1cc(CCN2CCN(c3nsc4ccccc34)CC2)cc2c1NC(=O)CC2(C)C | inconclusive: 54.9 µM [activator, single point]
Cc1ccc(C(C)(C)C)c(O)c1 | inconclusive: 53.2 µM [activator, single point] and active: 34.7 µM
CC(=O)c1cc2ccccc2s1 | inactive
CN(C[C@@H](CC[N+]12CCC(C3CCCCC3)(CC1)CC2)c1ccc(Cl)c(Cl)c1)C(=O)c1cc(C(F)(F)F)cc(C(F)(F)F)c1 | active: 24.5 µM
CCCCCCCCCCCCCCCCC(C(=O)O)C(O)(CC(=O)O)C(=O)O (stereo unspecified) | inconclusive: 26.8 µM [activator, single point]
O=C(Nc1ccccc1)c1cc(Cl)ccc1O | active: 49 µM
CCc1cc(Cc2cc(CC)c(N)c(CC)c2)cc(CC)c1N | inconclusive: 61.7 µM [activator, single point]
CS(=O)(=O)CCNCc1ccc(-c2ccc3ncnc(Nc4ccc(OCc5cccc(F)c5)c(Cl)c4)c3c2)o1 | inconclusive: 26.8 µM [activator, single point]

Assay: qHTS RealTime-Glo MT Cell Viability Assay in HEK293 cells - 0 hour (AID 1224880); note: nearly all actives have a fitted effect of over 45% in size
Conditions: RealTime-Glo luminescence; series mostly up to 76.8 µM
Method in brief: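 Kinetic, non-lysing viability readout. Seed HEK293 (600/well) with reagent, incubate 5 h at 37 C/5% CO2, pin 23 nL compound in DMSO, incubate at 37 C, read luminescence at 0, 8, 16, 24, 32, 40 h.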

Structure (SMILES) | Potency
O=C1c2c(O)ccc([N+](=O)[O-])c2C(=O)c2c([N+](=O)[O-])ccc(O)c21 | active: 43.2 µM
N/C(=N\N=C\c1ccc(Cl)cc1)N/N=C/c1ccc(Cl)cc1 | inconclusive: 21.3 µM [rising, partial curve]
O=C1C=CC(=O)N1c1ccc(Cc2ccc(N3C(=O)C=CC3=O)cc2)cc1 | inconclusive: 27.5 µM [falling, partial curve]
CCCCC(CC)CN=C(N)NC(N)=NCCCCCCN=C(N)NC(N)=NCC(CC)CCCC (stereo unspecified) | inconclusive: 19 µM [rising, partial curve]
CCOC(=O)C1=C(C)NC(C)=C(C(=O)OCC)C1c1ccccc1/C=C/C(=O)OC(C)(C)C | active: 3.79 µM
CCCCCCCCNC(C)C(O)c1ccc(SC(C)C)cc1 (stereo unspecified) | inconclusive: 19 µM [rising, partial curve]
CCc1cc(Cc2cc(CC)c(N)c(CC)c2)cc(CC)c1N | inconclusive: 0.776 µM [rising, partial curve]
CS(=O)(=O)CCNCc1ccc(-c2ccc3ncnc(Nc4ccc(OCc5cccc(F)c5)c(Cl)c4)c3c2)o1 | active: 0.674 µM
CCCCCCCCCC[N+](C)(CCCCCCCCCC)CCC[Si](OC)(OC)OC | inconclusive: 24.5 µM [falling, partial curve, poor fit]
